First the molecules themselves.
T1: UNK ZnF1-6 (called full-length) (human, UniProt Q9C0B0 30-357)
T1 sequence: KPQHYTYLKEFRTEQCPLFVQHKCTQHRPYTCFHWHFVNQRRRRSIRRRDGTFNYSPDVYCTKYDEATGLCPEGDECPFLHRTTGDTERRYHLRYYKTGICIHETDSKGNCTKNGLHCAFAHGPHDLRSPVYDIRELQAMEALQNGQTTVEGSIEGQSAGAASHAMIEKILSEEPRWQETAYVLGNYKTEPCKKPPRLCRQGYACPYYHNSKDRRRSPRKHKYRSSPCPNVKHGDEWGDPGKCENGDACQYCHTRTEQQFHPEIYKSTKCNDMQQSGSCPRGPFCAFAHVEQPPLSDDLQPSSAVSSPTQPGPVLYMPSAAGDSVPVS

B1: chr3:30797676:30800881:-|three_prime_utr|ENSG00000144644|control|control|control (ssRNA)
RNA: GGGAGUUCUACAGUCCGACGAUCUGUGUGUGUGUGUGUGUGUGUGUGUGUGUGUGUGUGUGUGUGUCUAUCUGUGUCUGUAAUAGGAAGACCUAAGGAAAGUAAUACUUGAAAUGUGUUGCAAGUACAUGUUUUCAUUUGUGCCAACAGAGGAUUGAGCAUCA
B2: ENSG00000107863:be:win_751|CDS|ENSG00000107863|bound_else_gene|NA|bound_elsewhere_windowed (ssRNA)
RNA: GGGAGUUCUACAGUCCGACGAUCCCUCCAUCACCAACAGAUGUUGCAAAAUCAAACACAGCAGUGUGUGUUUGCAAUGAAAGUGUAAGGACUGUCAUUGUGCCUUCUGAGAAGGUUGUAGAUUUGUUAUCCAAUAGAAACAACCAACAGAGGAUUGAGCAUCA
B3: ENSG00000070961:be:win_4001|3pUTR|ENSG00000070961|bound_else_gene|NA|bound_elsewhere_windowed (ssRNA)
RNA: GGGAGUUCUACAGUCCGACGAUCAGUAAAACUGGGCAAGACAAAGAGCCCUGGAUCGUUGAAUUGAUAGUUUAAUUUCUGCUGUUGGCUGUUAAUAAUUUGGAUUAUUUAUGUUUAUAAAUGAUACAGAUCUGUUUACAAGGUCAACAGAGGAUUGAGCAUCA
B4: chr5:82277714:82277885:-|CDS|ENSG00000186468|unk|FALSE|unique (ssRNA)
RNA: GGGAGUUCUACAGUCCGACGAUCAACUAAAAUAUUUAAUUUUUAGGCAAGUGUCGUGGACUUCGUACUGCUAGGAAGCUCCGUAGUCACCGACGAGACCAGAAGUGGCAUGAUAAACAGUAUAAGAAAGCUCAUUUGGGCACACAACAGAGGAUUGAGCAUCA
B5: chr10:116062369:116062470:-|3pUTR|ENSG00000151892|msi1|FALSE|unique (ssRNA)
RNA: GGGAGUUCUACAGUCCGACGAUCCUUUUUUCACUUCAAAAUGUUUUCAAGGGAAAUUCAGCAGACACCCAACUGUAUUUAAUUAGUGAAAAGAUCUAUAAAGACUCUUACUUUGAAUAAACACAUUAAGUAAGUGUGUCAAAACAACAGAGGAUUGAGCAUCA
B6: chr15:85581792:85581893:+|CDS|ENSG00000170776|unk|total|mutant (ssRNA)
RNA: GGGAGUUCUACAGUCCGACGAUCUGCCCAGGACGCACCUCUGCCUAAGGGGGCAGACUUGACCGAGGAGGCUGCCAGCCGUACCGUGGAUGCUGUCAUCGAACAAGUCAAGGCCGCUGGAGCACUGCUUACUGAGGGGGAGGCCAACAGAGGAUUGAGCAUCA
B7: ENSG00000136451:be:win_1451|CDS_3pUTR|ENSG00000136451|bound_else_gene|NA|bound_elsewhere_windowed (ssRNA)
RNA: GGGAGUUCUACAGUCCGACGAUCCUCCAAUGAAUCUACCCACACCUAUGACAUUAGCCGCCCCUCUCAAUAUAGCAAUGAGACCUGUAGAGAGCAUGCCUUUCUUGCCCCAAGCUUUGCCUACAUCACCGCCUUGGUAAACAGCAACAGAGGAUUGAGCAUCA
B8: chr12:107752058:107752159:-|CDS|ENSG00000110851|unk|total|mutant (ssRNA)
RNA: GGGAGUUCUACAGUCCGACGAUCUAACUCUAUAAAUGUUGAUGGUAAUACAGCAUUAUCUAUCACCAAUAACCCUUCAGCACCCGAUCCCUAUCAGUCCAAUGGAAAUGUUGGAUCCGAACCAGGCAUUGUUUCAACCGACUCCAACAGAGGAUUGAGCAUCA
B9: chrX:120253675:120253799:+|CDS|ENSG00000177485|unk|total|mutant (ssRNA)
RNA: GGGAGUUCUACAGUCCGACGAUCUAAAAUUGUUCGUGUCCGAUCAGAUUUGCUUGAUGAGUUAAUUAAAUCAGGGCAGUUAUCCGGAGUGAAAUUUACCGCAGAGCUUGGUGUCCCAUUGUCACAGGUUAAAAGCAUCUCAGGCAACAGAGGAUUGAGCAUCA
B10: chr17:3448806:3449149:-|CDS|ENSG00000141255|control|control|control (ssRNA)
RNA: GGGAGUUCUACAGUCCGACGAUCAACCGAGCUACUCAGACAAACACAUUCAUCAAAAAUAUCUGGCUGCACAAUGAGAGGGCUAGACAAAAACAGUGCACUACAGACACUUAAGCCCAAUUUUCAACAAAAUCAAUAUAAGAACAACAGAGGAUUGAGCAUCA
B11: ENSG00000107863:be:win_6401|3pUTR|ENSG00000107863|bound_else_gene|NA|bound_elsewhere_windowed (ssRNA)
RNA: GGGAGUUCUACAGUCCGACGAUCCUUUUAAUACAGUUUUUGAGUUUUGUGUGACUUGAAUUUUUAAUCUUUCUGUAAAAUACGUAACUUAAAUGAACAUAUUAAAUGUGUAUCUUUUCUUCAGAUACCAGAUUUGAUAUAAUGCAACAGAGGAUUGAGCAUCA
B12: chr10:24583932:24584033:-|3pUTR|ENSG00000107863|unk|FALSE|bound_elsewhere (ssRNA)
RNA: GGGAGUUCUACAGUCCGACGAUCAACAAAAGUGCCUCAUCAUAAAAAUACAGUUGGUUUUUAGGGUGCCAUAUUGUUAAAAUUAGAUAACUUACUUACAUUGAAUAAACGAAUGCGUUUUAUUGGUAACAGAUAUCAUUACAUCAACAGAGGAUUGAGCAUCA
B13: chr7:36452941:36453042:+|3pUTR|ENSG00000011426|msi1|total|mutant (ssRNA)
RNA: GGGAGUUCUACAGUCCGACGAUCGUCUUGAAGCAGCAACGUCUUUCAGGGGUUGGAGACAGAAACCCAUUCUCCAAUCUCAGCCGUUUUUUCGAAAGGCUGUGAUCAUUUAUUGAUCGUGAUAUGACUUGUUACCCGGGUACUCAACAGAGGAUUGAGCAUCA
B14: ENSG00000198589:be:win_8501|CDS_3pUTR|ENSG00000198589|bound_else_gene|NA|bound_elsewhere_windowed (ssRNA)
RNA: GGGAGUUCUACAGUCCGACGAUCUUGUGCUAUUUUACAACGACUUUAACCGGUGGCAUCAUGAAUACCAAACCCGCUACUGAUGGUGACAGCUGUACAUCAACUCUGCCCCUAGGAUGAGCAGAAGUACCUGGAGCAUCAUUCCAACAGAGGAUUGAGCAUCA
B15: chr5:103087900:103088172:-|CDS|ENSG00000145723|control|control|control (ssRNA)
RNA: GGGAGUUCUACAGUCCGACGAUCAAGGAUCGUGAACUAUUAGAAUAUAGAAAUACGAAAAUCUCUCCAUUGAUAGACGAUCAUAGUUCUCUUGAAAAGCAGACUUUCAGUCUGUUGGACUCUUCAAACCAGGUUCUUGAAUACCAACAGAGGAUUGAGCAUCA
B16: ENSG00000136451:be:win_3601|3pUTR|ENSG00000136451|bound_else_gene|NA|bound_elsewhere_windowed (ssRNA)
RNA: GGGAGUUCUACAGUCCGACGAUCCCUGGAUUGGGAGGCACAGUGGCCACAUUUGGAGGAAGUUCACAUUUCCUGGCAUGCAGACCCAAAACUGGGUUCUGGCUCUGCCUGCUGGGAUCUGUUAUCUCUGGUGGGCUGGCAGUCCAACAGAGGAUUGAGCAUCA
B17: chr1:151048051:151048152:+|CDS|ENSG00000143443|unk|FALSE|unique (ssRNA)
RNA: GGGAGUUCUACAGUCCGACGAUCGACCGCCUGGCUGGACCAGCGGCUGCCGAGCUCUUGGCCGCCACGGUGUCCACCGGCUUUAGCCGGUCGUCCGCCAUUAACGAGGAGGAUGGGUCUUCAGAAGAGGGGGUUGUGAUUAAUCAACAGAGGAUUGAGCAUCA
B18: chr14:23097777:23097878:+|CDS|ENSG00000179933|msi1|FALSE|unique (ssRNA)
RNA: GGGAGUUCUACAGUCCGACGAUCGAUGAAGUGUAUUCUUCACUGGUUUGCCAAUUGGUCAGGUCCCCAGCGUGAACGUUUCCUAGAGGACCUGGUAGCUAAGGCAGUGCCAGAAAAAUUACAACCACUGCUGGAUAGUCUGGACAACAGAGGAUUGAGCAUCA
B19: ENSG00000090470:stop:overlap|stop_codon|ENSG00000090470|stop_codon|NA|stop_codon (ssRNA)
RNA: GGGAGUUCUACAGUCCGACGAUCGAUGGGUCCUUCCCCCGCUCCCCAGCAACGACAUCUGGGCAACUGCUGUUAAGCUGCAUUAGUAAAGAUGCUCCAGGAGUGUGGUCCAGCCAGCGCUCUUUCCAGCUGUAAAUAUUAGCGCAACAGAGGAUUGAGCAUCA
B20: chr1:223774945:223775046:+|3pUTR|ENSG00000162909|msi1|FALSE|unique (ssRNA)
RNA: GGGAGUUCUACAGUCCGACGAUCAAAUACACUUUGUAUCUGGACCUCAAAAUUAUGGGAACAUUUACUUAAACGGAUGAUCAUAGCUGAAAAUAAUGAUACUGUCAAUUUGAGAUAGCAGAAGUUUCACACAUCAAAGUAAAACAACAGAGGAUUGAGCAUCA
B21: chr13:100668578:100668794:-|CDS|ENSG00000125247|control|control|control (ssRNA)
RNA: GGGAGUUCUACAGUCCGACGAUCCACUGAUUUGGAUCACAUUCUUCCAUCUUCUGUUCUUCCUCCAUUCUGGGCUAAGUUAGUAGUGGGAUCGGUUGCCAUUGUGUGUUUUGCACGCAGCUAUGAUGGAGACUUUGUCUUUGACAACAGAGGAUUGAGCAUCA
B22: ENSG00000107863:be:win_3751|CDS|ENSG00000107863|bound_else_gene|NA|bound_elsewhere_windowed (ssRNA)
RNA: GGGAGUUCUACAGUCCGACGAUCGAUCCUCUAGAUCGUCUGAAAACAUUAAAAAGACUAAUUCACGAUUUGCCUGAACAUCAUUAUGAAACACUUAAGUUCCUUUCAGCUCAUCUGAAGACAGUGGCAGAAAAUUCAGAAAAACAACAGAGGAUUGAGCAUCA

Some of the results follow.

Among the data in PMC12136788 are binding signal values, retold here.

The target in the assay is T1, UNK ZnF1-6 (called full-length). Put plainly: nsRBNS (natural sequence RNA bind-n-seq); RBNS binding buffer (assumed for nsRBNS): 25 mM Tris pH 7.5, 150 mM KCl, 3 mM MgCl2, 0.01% Triton X-100, 500 ug/ml BSA, 20 U/ml SUPERase-In, 4 C; UNK is unkempt and MSI1 is Musashi-1; names of the RNAs are library labels; protein concentration not given here; high values mean tight binding.
In turn, B1 had a binding signal of 0.605 enrichment R.

As for B2, the binding signal is 0.398 enrichment R.

B3 came in with a binding signal of 0.527 enrichment R.

As for B4, the binding signal stood at 0.669 enrichment R.

As for B5, the binding signal is 0.471 enrichment R.

B6 yielded a binding signal of 0.926 enrichment R.

As to B7, the binding signal stood at 1.48 enrichment R.

For the molecule B8, the binding signal turned out to be 0.504 enrichment R.

As for B9, the binding signal was found to be 0.434 enrichment R.

In the case of B10, the binding signal amounted to 0.578 enrichment R.

B11 came in with a binding signal of 0.346 enrichment R.

In turn, B12 returned a binding signal of 1.06 enrichment R.

In turn, B13 showed a binding signal of 0.651 enrichment R.

As for B14, the binding signal was determined as 0.558 enrichment R.

Molecule B15 gave a binding signal of 1.49 enrichment R.

B16: the binding signal was determined as 0.833 enrichment R.

As for B17, the binding signal was 0.756 enrichment R.

In turn, B18 gave a binding signal of 0.498 enrichment R.

The molecule B19 gave a binding signal of 0.737 enrichment R.

Molecule B20 gave a binding signal of 0.322 enrichment R.

For B21, the binding signal was 0.56 enrichment R.

Molecule B22 displayed a binding signal of 0.346 enrichment R.
